Results from patent publication US20230227428A1 (Anaxis Pharma Pty Ltd, priority 2020, published 2023).
pIC50: −log10 of the molar value.

Tests used:
[1] = test system: U937 human histiocytic leukemia cell line; assay: Cellular assay: inhibition of TSQ induced necroptosis, 384 well plate format; settings: U-937, U937 cells, TSQ cocktail (TNF, Smac mimetic, Q-VD-OPh), 48 hours, CellTitre-Glo, read-out: Inhibition of TSQ-induced necroptosis (IC50 cell-based assay)
Description: Cellular Assay: Screening Compounds for Inhibition of TSQ Induced Necroptosis, 384 Well Plate Format.
(§1) Cell Line ID: U937 human histiocytic leukemia cell line.
Cell Concentration (cells/well): Final cell density is 20000 cells per well.
Cell growth medium: HT-RPMI medium+7.4% Fetal Bovine Serum (FBS). Cells are cultured in Corning 150 cm^2 tissue culture flasks with vented caps at 37° C./5% CO2.
Incubation: Plates were incubated at 37° C./5% CO2 in a humidified incubator for 48 hours following addition of compounds and death stimuli (TSQ cocktail).
Compound concentration: 36 μM starting concentration, 1:3 dilution, 10 point
DMSO final concentration (% v/v): 0.3%.
Compounds in TSQ cocktail (T: TNF; S: Smac mimetic; Q: Q-VD-OPh) and their final concentrations:
hTNF-Fc (100 ng/ml)—produced by standard procedures as shown in Bossen et al., J Biol Chem, 2006, 281(20), 13964-13971.
Compound A (500 nM)—Smac mimetic, Tetralogic and SYNthesis med chem Q-VD-OPh (10 μM)—MP Biomedicals
(§2) The cellular assay was carried out according to the following steps: • 1. Each well was prepared by sequential addition of: • a. DMSO (control; columns 1-2 and 23-24) or compound in DMSO—addition was performed using acoustic transfer of nl volumes of stock compound to give final test concentrations of 36, 12, 4, 1.3, 0.44, 0.148, 0.049, 0.016, 0.005 and 0.002 μM. All wells were backfilled with DMSO to a final total volume in the well of 100 nl. • b. Following compound/DMSO addition in step (a), 40 μL of cell suspension (5×10^5 cells/mL) was added to provide a final cell concentration of 20,000 cells per well, and • c. Following cell addition in step (b), 10 μL of 5×TSQ cocktail (except to positive controls; […]) was added to each well. • 2. After 48 hours, plate was removed from the 37° C. incubator and equilibrated to room temperature for 45 minutes. • 3. 15 μL of room temperature CellTitre-Glo2™ (Promega™) was added to each well. • 4. Shook plates for 2 minutes (˜600 rpm) and incubated at room temperature for 15 minutes to allow signal to stabilise. • 5. Read luminescence readout on a plate reader.
Percent viability was calculated for each compound according to equation (2):
% viability=100×((RawData−NSA)/(TA−NSA) (2)
wherein RawData is the readout of any cell containing a compound of the invention TA is the total activity provided by the luminescence readout from DMSO only wells (columns 2 and 24)=100% viability NSA is the non-specific activity provided by DMSO+TSQ wells (columns 1 and 23)=0% viability
(§3) Curve fitting: 10-point titration curves are fitted with the 4-parameter logistic nonlinear regression model and the IC50 reported is the inflection point of the curve
Analysis: Data was loaded into Dotmatics™ and visualised using the Tibco® Spotfire™ software. points titration curve were fitted with the 4 parameter logistic nonlinear regression model and the IC50 reported reflect the inflection point of the curve for curve fitting.
Assay involving the TSQ cocktail (T: TNF; S: Smac mimetic; Q: Q-VD-OPh): TSQ treatment ensures that cells specifically undergo necroptotic cell death. TNF activates the TNF receptor, Smac mimetic directs the signal away from proinflammatory signaling and toward the RIP1/RIP3-mediated cell death pathways, and Q-VD-OPh ensures that the apoptotic response is blocked leaving only the programmed necrosis response. The compounds' activity (solution in DMSO) tested in this TSQ-induced assay was evaluated by determining the number of viable cells in culture by measuring the amount of ATP present as measured by CelltiterGlo.

U937 cells = assay: Counter screen: cell viability of U937 cells treated with compound without the TSQ cocktail (off-target effect); settings: Homo sapiens, U-937, compound in DMSO without the TSQ cocktail, cell viability by CelltiterGlo, read-out: Off-target effect (IC50 cell-based assay)
Description: as §1, §2, §3
Counter screen: In parallel, all compounds were tested for their ability to affect cell viability. The same U937 cells were treated with compound in DMSO without the TSQ cocktail. This counter screen enabled evaluation of off-target effects. In this case, cell viability was measured by CelltiterGlo.

Compound | pIC50 [1] | pIC50 (U937 cells)
NC(=O)c1c(-c2ccc(NC(=O)N3CCC[C@H](c4ccccc4)C3)cc2)n[nH]c1Nc1cnccn1 [Compound 90, (3R)-N-(4-{4-carbamoyl-5-[(pyrazin-2-yl)amino]-1H-pyrazol-3-yl}phenyl)-3-phenylpiperidine-1-carboxamide] | > 7.00 | < 6.00
COc1cc(Nc2[nH]nc(-c3ccc(NC(=O)NCCc4ccccc4)cc3)c2C(N)=O)ccn1 [Compound 66, 5-[(2-methoxypyridin-4-yl)amino]-3-(4-{[(2-phenylethyl)carbamoyl]amino}phenyl)-1H-pyrazole-4-carboxamide] | 6.00 to 7.00 | < 6.00
COc1cc(Nc2[nH]nc(-c3ccc(NC(=O)N(C)CCc4ccccc4)cc3)c2C(N)=O)ccn1 [Compound 67, 5-((2-methoxypyridin-4-yl)amino)-3-(4-(3-methyl-3-phenethylureido)phenyl)-1H-pyrazole-4-carboxamide] | < 6.00 | < 6.00
COc1cc(Nc2[nH]nc(-c3ccc(NC(=O)N4CCC[C@@H](c5ccccc5)C4)cc3)c2C(N)=O)ccn1 [Compound 60, (S)-N-(4-(4-carbamoyl-5-((2-methoxypyridin-4-yl)amino)-1H-pyrazol-3-yl)phenyl)-3-phenylpiperidine-1-carboxamide] | 6.00 to 7.00 | < 6.00
NC(=O)c1c(-c2ccc(NC(=O)CC3CCCCC3)cc2)n[nH]c1Nc1ccccn1 [Compound 8, 3-(4-(2-cyclohexyl-acetamido)phenyl)-5-(pyridin-2-ylamino)-1H-pyrazole-4-carboxamide] | < 6.00 | 
NC(=O)c1c(-c2ccc(NC(=O)N3CCCC(c4ccc(Cl)cc4)C3)cc2)n[nH]c1Nc1cnccn1 (stereo not drawn) [Compound 92, N-(4-(4-carbamoyl-5-(pyrazin-2-ylamino)-1H-pyrazol-3-yl)phenyl)-3-(4-chlorophenyl)piperidine-1-carboxamide] | 6.00 to 7.00 | < 6.00
NC(=O)c1c(-c2ccc(NC(=O)Nc3ccc(OC(F)(F)F)cc3)cc2)n[nH]c1Nc1cccnc1 [Compound 110, 5-(pyridin-3-ylamino)-3-(4-(3-(4-(trifluoromethoxy)phenyl)ureido)phenyl)-1H-pyrazole-4-carboxamide] | 6.00 to 7.00 | 
NC(=O)c1c(-c2ccc(NC(=O)N3CCC[C@H](c4ccc(F)cc4)C3)cc2)n[nH]c1Nc1cccc(C(F)(F)F)n1 [Compound 78, (R)-N-(4-(4-carbamoyl-5-((6-(trifluoromethyl)pyridin-2-yl)amino)-1H-pyrazol-3-yl)phenyl)-3-(4-fluorophenyl)piperidine-1-carboxamide] | > 7.00 | < 6.00
COc1cccc(C2CCCN(C(=O)Nc3ccc(-c4n[nH]c(Nc5cnccn5)c4C(N)=O)cc3)C2)c1 (stereo not drawn) [Compound 97, N-(4-(4-carbamoyl-5-(pyrazin-2-ylamino)-1H-pyrazol-3-yl)phenyl)-3-(3-methoxyphenyl)piperidine-1-carboxamide] | > 7.00 | < 6.00
NC(=O)c1c(-c2ccc(NC(=O)Cc3ccc(C(F)(F)F)cc3)cc2)n[nH]c1Nc1ccccn1 [Compound 1, 3-(4-(2-(4-(trifluoromethyl)phenyl)acetamido)phenyl)-5-(pyridin-2-ylamino)-1H-pyrazole-4-carboxamide] | 6.00 to 7.00 | 
NC(=O)c1c(-c2ccc(NC(=O)N3CCCC(c4cccc(C(F)(F)F)c4)C3)cc2)n[nH]c1Nc1cnccn1 (stereo not drawn) [Compound 98, N-(4-(4-carbamoyl-5-(pyrazin-2-ylamino)-1H-pyrazol-3-yl)phenyl)-3-(3-(trifluoromethyl)phenyl)piperidine-1-carboxamide] | > 7.00 | < 6.00
NC(=O)c1c(-c2ccc(NC(=O)Nc3ccc(OC(F)(F)F)cc3)cc2)n[nH]c1Nc1ccncc1 [Compound 109, 5-(pyridin-4-ylamino)-3-(4-(3-(4-(trifluoromethoxy)phenyl)ureido)phenyl)-1H-pyrazole-4-carboxamide] | 6.00 to 7.00 | < 6.00
COc1cc(Nc2[nH]nc(-c3ccc(NC(=O)N4CCCC(c5ccccc5)C4)cc3)c2C(N)=O)ccn1 (stereo not drawn) [Compound 59, N-(4-(4-carbamoyl-5-((2-methoxypyridin-4-yl)amino)-1H-pyrazol-3-yl)phenyl)-3-phenylpiperidine-1-carboxamide] | 6.00 to 7.00 | < 6.00
NC(=O)c1c(-c2ccc(NC(=O)N3CCC[C@@H](c4ccccc4)C3)cc2)n[nH]c1Nc1cnccn1 [Compound 91, (3S)-N-(4-{4-carbamoyl-5-[(pyrazin-2-yl)amino]-1H-pyrazol-3-yl}phenyl)-3-phenylpiperidine-1-carboxamide] | < 6.00 | < 6.00
COc1cc(Nc2[nH]nc(-c3ccc(NC(=O)N4CCC[C@H](c5ccccc5)C4)cc3)c2C(N)=O)ccn1 [Compound 61, (R)-N-(4-(4-carbamoyl-5-((2-methoxypyridin-4-yl)amino)-1H-pyrazol-3-yl)phenyl)-3-phenylpiperidine-1-carboxamide] | > 7.00 | < 6.00
NC(=O)c1c(-c2ccc(NC(=O)N3CCCC(c4ccccc4)C3)cc2)n[nH]c1Nc1cnccn1 (stereo not drawn) [Compound 89, N-(4-(4-carbamoyl-5-(pyrazin-2-ylamino)-1H-pyrazol-3-yl)phenyl)-3-phenylpiperidine-1-carboxamide] | 6.00 to 7.00 | < 6.00
NC(=O)c1c(-c2ccc(NC(=O)N3CCCC(c4ccc(F)cc4)C3)cc2)n[nH]c1Nc1cnccn1 (stereo not drawn) [Compound 94, N-(4-(4-carbamoyl-5-(pyrazin-2-ylamino)-1H-pyrazol-3-yl)phenyl)-3-(4-fluorophenyl)piperidine-1-carboxamide] | > 7.00 | < 6.00
COc1cc(Nc2[nH]nc(-c3ccc(NC(=O)N4CCC[C@H]4c4ccccc4)cc3)c2C(N)=O)ccn1 [Compound 103, (S)-5-((2-methoxypyridin-4-yl)amino)-3-(4-(2-phenylpyrrolidine-1-carboxamido)phenyl)-1H-pyrazole-4-carboxamide] | < 6.00 | < 6.00
